# Measured values taken from publication PMC9911399, “Two distinct binding modes provide the RNA-binding protein RbFox with extraordinary sequence specificity”.
# Changes are numbered by the printed parent chain; changes in the protein carry UniProt numbers. The list shows a part of the results.
# B1: GGCGCAU (DNA:RNA)
# RNA: GGGAGACCGGAAUUCAGAUUGUCCGGCGCAUUUAAAUCCCGUCGUAGCCACCA
# DNA 1: CAATCTGAATTCCGGTCTCCC
# DNA 2: TGGTGGCTACGACGGGATT
# B2: UUUGGAU (DNA:RNA)
# RNA: B1 RNA with G25U, G26U, C27U, C29G
# DNA 1: CAATCTGAATTCCGGTCTCCC
# DNA 2: TGGTGGCTACGACGGGATT
# B3: CUUCACG (DNA:RNA)
# RNA: GGGAGACCGGAAUUCAGAUUGUCCCUUCACGUUAAAUCCCGUCGUAGCCACCA
# DNA 1: CAATCTGAATTCCGGTCTCCC
# DNA 2: TGGTGGCTACGACGGGATT
# B4: ACGAUGU (DNA:RNA)
# RNA: B1 RNA with G25A, G26C, C27G, G28A, C29U, A30G
# DNA 1: CAATCTGAATTCCGGTCTCCC
# DNA 2: TGGTGGCTACGACGGGATT
# B5: AUGCGGG (DNA:RNA)
# RNA: B3 RNA with C25A, U27G, A29G, C30G
# DNA 1: CAATCTGAATTCCGGTCTCCC
# DNA 2: TGGTGGCTACGACGGGATT
# B6: UCUCGUU (DNA:RNA)
# RNA: B3 RNA with C25U, U26C, A29G, C30U, G31U
# DNA 1: CAATCTGAATTCCGGTCTCCC
# DNA 2: TGGTGGCTACGACGGGATT
# B7: GAACUUG (DNA:RNA)
# RNA: B3 RNA with C25G, U26A, U27A, A29U, C30U
# DNA 1: CAATCTGAATTCCGGTCTCCC
# DNA 2: TGGTGGCTACGACGGGATT
# B8: GAGUGCC (DNA:RNA)
# RNA: B3 RNA with C25G, U26A, U27G, C28U, A29G, G31C
# DNA 1: CAATCTGAATTCCGGTCTCCC
# DNA 2: TGGTGGCTACGACGGGATT
# B9: CAAACCC (DNA:RNA)
# RNA: B3 RNA with U26A, U27A, C28A, A29C, G31C
# DNA 1: CAATCTGAATTCCGGTCTCCC
# DNA 2: TGGTGGCTACGACGGGATT
# B10: ACCGUCA (DNA:RNA)
# RNA: B1 RNA with G25A, G26C, C29U, A30C, U31A
# DNA 1: CAATCTGAATTCCGGTCTCCC
# DNA 2: TGGTGGCTACGACGGGATT
# B11: ACCAAUC (DNA:RNA)
# RNA: B3 RNA with C25A, U26C, U27C, C28A, C30U, G31C
# DNA 1: CAATCTGAATTCCGGTCTCCC
# DNA 2: TGGTGGCTACGACGGGATT
# B12: AUUUCCA (DNA:RNA)
# RNA: B3 RNA with C25A, C28U, A29C, G31A
# DNA 1: CAATCTGAATTCCGGTCTCCC
# DNA 2: TGGTGGCTACGACGGGATT
# B13: CGAAGAA (DNA:RNA)
# RNA: B1 RNA with G25C, C27A, G28A, C29G, U31A
# DNA 1: CAATCTGAATTCCGGTCTCCC
# DNA 2: TGGTGGCTACGACGGGATT
# B14: UUGAACA (DNA:RNA)
# RNA: B3 RNA with C25U, U27G, C28A, G31A
# DNA 1: CAATCTGAATTCCGGTCTCCC
# DNA 2: TGGTGGCTACGACGGGATT
# B15: CCUAAAC (DNA:RNA)
# RNA: B3 RNA with U26C, C28A, C30A, G31C
# DNA 1: CAATCTGAATTCCGGTCTCCC
# DNA 2: TGGTGGCTACGACGGGATT
# B16: ACACUAA (DNA:RNA)
# RNA: B3 RNA with C25A, U26C, U27A, A29U, C30A, G31A
# DNA 1: CAATCTGAATTCCGGTCTCCC
# DNA 2: TGGTGGCTACGACGGGATT
# B17: GGCUAGC (DNA:RNA)
# RNA: B1 RNA with G28U, C29A, A30G, U31C
# DNA 1: CAATCTGAATTCCGGTCTCCC
# DNA 2: TGGTGGCTACGACGGGATT
# B18: AUAACGG (DNA:RNA)
# RNA: B3 RNA with C25A, U27A, C28A, A29C, C30G
# DNA 1: CAATCTGAATTCCGGTCTCCC
# DNA 2: TGGTGGCTACGACGGGATT
# B19: UCAUAAA (DNA:RNA)
# RNA: B3 RNA with C25U, U26C, U27A, C28U, C30A, G31A
# DNA 1: CAATCTGAATTCCGGTCTCCC
# DNA 2: TGGTGGCTACGACGGGATT
# B20: GGGGUGC (DNA:RNA)
# RNA: B1 RNA with C27G, C29U, A30G, U31C
# DNA 1: CAATCTGAATTCCGGTCTCCC
# DNA 2: TGGTGGCTACGACGGGATT
# Biological target: T1, RBFOX1 RRM (Homo sapiens, UniProt Q9NWB1 109-208)
# T1 sequence: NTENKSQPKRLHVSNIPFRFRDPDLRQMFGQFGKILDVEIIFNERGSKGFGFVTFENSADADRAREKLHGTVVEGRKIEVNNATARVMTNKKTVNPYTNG
# Experiment: EMSA; HiTS-Eq, 1 nM pool, 10 min; buffer printed only for the single-RNA assays: 10 mM Tris pH 7.5, 150 mM NaCl, 3.4 mM EDTA, 0.001% NP-40, 30 C
# Settings: tags: His6 N-terminal (pET28a); label: 5' 32P
# In short: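 Purified wild-type or mutant RbFox RRM at increasing concentrations was equilibrated with 1 nM of 5′-radiolabelled RNA carrying 7 randomized nucleotides for 10 min in 50 µL. Unbound RNA was separated by 8% native PAGE and sequenced. Relative association constants came from read-count changes of each RNA species compared with the control reaction, normalised to the cognate motif.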
row,Binder,binding signal
1,B1,0.0148 KA relative to UGCAUGU
2,B2,0.007 KA relative to UGCAUGU
3,B3,0.00646 KA relative to UGCAUGU
4,B4,0.00996 KA relative to UGCAUGU
5,B5,0.0119 KA relative to UGCAUGU
6,B6,0.00869 KA relative to UGCAUGU
7,B7,0.0137 KA relative to UGCAUGU
8,B8,0.0148 KA relative to UGCAUGU
9,B9,0.000305 KA relative to UGCAUGU
10,B10,0.000905 KA relative to UGCAUGU
11,B11,0.000341 KA relative to UGCAUGU
12,B12,0.000627 KA relative to UGCAUGU
13,B13,0.007 KA relative to UGCAUGU
14,B14,0.00639 KA relative to UGCAUGU
15,B15,0.0015 KA relative to UGCAUGU
16,B16,0.00225 KA relative to UGCAUGU
17,B17,0.0184 KA relative to UGCAUGU
18,B18,0.00478 KA relative to UGCAUGU
19,B19,0.000782 KA relative to UGCAUGU
20,B20,0.0467 KA relative to UGCAUGU
